# Data as given in paper PMC4336329 (PLoS ONE, 2015).
# In all, about 310,000 compounds went through this assay and about 2,200 (0.71%) showed an effect of 50% or more. Effects have a minus sign here. The list shows a part of the results.
# Target: human ether-à-go-go-related gene (hERG) potassium channel (human, UniProt Q12809)
# Test: primary screen, population patch clamp on CHO cells stably expressing hERG
# human ether-à-go-go-related gene (hERG) potassium channel, sequence (Q12809 whole entry, looked up): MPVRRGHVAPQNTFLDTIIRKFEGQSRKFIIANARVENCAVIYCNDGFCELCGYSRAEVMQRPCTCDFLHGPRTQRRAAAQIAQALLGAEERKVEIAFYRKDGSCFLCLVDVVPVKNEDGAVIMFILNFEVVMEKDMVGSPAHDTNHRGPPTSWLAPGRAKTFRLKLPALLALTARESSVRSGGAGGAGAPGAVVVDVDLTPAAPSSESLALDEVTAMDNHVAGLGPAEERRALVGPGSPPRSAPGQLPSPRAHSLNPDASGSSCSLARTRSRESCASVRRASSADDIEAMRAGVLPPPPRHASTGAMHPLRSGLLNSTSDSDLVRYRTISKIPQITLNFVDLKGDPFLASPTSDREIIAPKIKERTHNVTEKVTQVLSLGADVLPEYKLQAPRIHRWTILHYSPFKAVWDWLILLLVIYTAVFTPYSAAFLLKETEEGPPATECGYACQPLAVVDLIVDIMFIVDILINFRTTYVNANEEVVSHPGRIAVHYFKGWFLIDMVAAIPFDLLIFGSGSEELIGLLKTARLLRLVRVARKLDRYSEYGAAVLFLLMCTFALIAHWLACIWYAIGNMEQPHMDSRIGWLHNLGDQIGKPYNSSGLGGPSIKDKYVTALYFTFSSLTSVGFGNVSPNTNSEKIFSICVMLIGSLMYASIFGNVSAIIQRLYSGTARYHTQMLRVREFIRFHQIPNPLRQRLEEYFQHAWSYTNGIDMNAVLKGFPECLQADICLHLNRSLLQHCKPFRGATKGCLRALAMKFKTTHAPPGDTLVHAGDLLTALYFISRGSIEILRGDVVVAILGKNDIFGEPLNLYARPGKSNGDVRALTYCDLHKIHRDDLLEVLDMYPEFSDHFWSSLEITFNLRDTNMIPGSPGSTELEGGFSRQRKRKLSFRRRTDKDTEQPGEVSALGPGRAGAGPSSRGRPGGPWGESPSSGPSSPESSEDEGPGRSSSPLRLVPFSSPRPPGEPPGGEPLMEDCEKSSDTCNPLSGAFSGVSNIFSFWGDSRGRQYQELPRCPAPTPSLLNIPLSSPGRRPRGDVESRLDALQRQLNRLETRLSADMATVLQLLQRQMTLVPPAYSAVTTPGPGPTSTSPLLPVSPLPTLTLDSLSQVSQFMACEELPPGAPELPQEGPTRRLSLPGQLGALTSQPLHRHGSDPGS
row,SMILES,"hERG current change (%, negative = inhibition) at 1uM [%]"
1,CC(C)CC1NC(=O)N(CC(=O)NC2CCCc3ccccc32)C1=O (centres unmarked),9.38
2,CC1=C([N+](=O)[O-])C(c2ccccc2Cl)NC(=O)N1C (centres unmarked),11.4
3,COc1ccc(-n2c(C)cc(/C=C3\C(=O)NN(c4ccccc4)C3=O)c2C)cc1,14.6
4,CN1CCc2cc3c(cc2[C@H]1[C@@H]1OC(=O)c2c1ccc1c2OCO1)OCO3,1.34
5,COc1ccc(C(C(=O)NC2CCCC2)N(CCCO)C(=O)c2snc(C(N)=O)c2N)cc1 (centres unmarked),7.08
6,O=C1NC(=O)C(=Cc2ccc(-c3ccc(F)cc3O)o2)C(=O)N1,13.1
7,CC(=O)c1nnn(-c2ccc(Cl)cc2C#N)c1C,5.43
8,COc1ccccc1NS(=O)(=O)c1cc(C(=O)N2CCN(C/C=C/c3ccccc3)CC2)ccc1C,1.27
9,COc1ccc(S(=O)(=O)N2CCC(C(=O)NCc3ccccn3)CC2)cc1Cl,0.395
10,COC(=O)NC1CCS(=O)(=O)C1 (centres unmarked),-6.41
11,COCCSc1nnc(NS(=O)(=O)c2ccc(F)cc2)s1,10.5
12,CCOc1ccc(-n2c(SCC(=O)Nc3ccc4c(c3)OCCO4)nc3c(c2=O)SCC3)cc1,-0.0178
13,COc1ccc(C(CNC(=O)c2cccc(S(=O)(=O)NCc3ccccc3)c2)N2CCOCC2)cc1 (centres unmarked),-13.5
14,Cc1ccc(NC(=O)c2cc(=O)c3ccccc3o2)cc1S(=O)(=O)N1CCCCC1,14.1
15,CCOC(=O)N1CCN(CC(O)COc2ccc(C(C)C)c(C)c2)CC1.Cl (centres unmarked),4.88
16,CCOC(=O)C1CCN(C(=O)C2CCCN(S(=O)(=O)c3ccc(OC)c(Cl)c3)C2)CC1 (centres unmarked),-29.2
17,CC(=O)OC(/C(O)=C(\C#N)c1nc2ccccc2[nH]1)c1ccccc1 (centres unmarked),7.37
18,COCCN(CCOC)Cc1c(O)ccc2c3c(c(=O)oc12)CCC3,-4.98
19,S=c1[nH]nc(-c2ccccn2)n1/N=C/c1ccco1,10.7
20,O=S(=O)(c1ccc(SCc2ccc(Cl)cc2)nc1)N1CCCC1,16.9
21,O=C(NCc1cccnc1)c1ccc(-c2cc(Cl)ccc2Cl)o1,-14
22,Brc1ccc(OCc2nnc(SCC3CCCCC3)o2)cc1,14.9

row,SMILES,"hERG current change (%, negative = inhibition) at 1uM [%]"
1,CCC(CC)NCc1c[nH]c2ccccc12.O=C(O)C(=O)O,6.79
2,COc1ccc(N2C(=O)c3ccccc3NC2c2ccccc2O)cc1 (centres unmarked),11.6
3,O=C(Nc1cccc(NC(=O)c2cccnc2Cl)c1)c1ccco1,9.36
4,Cc1n[nH]c(C)c1S(=O)(=O)N(CC(=O)Nc1ccc2c(c1)OCCO2)c1ccc(C(C)C)cc1,7.92
5,CC1(C)Cc2nc(N)c(C(=O)NCCO)cc2CO1,0.569
6,CCCNS(=O)(=O)c1ccc(CCC(=O)N2CCN(c3ccc(F)cc3)CC2)cc1,-9.85
7,Cc1cccc(C)c1NC(=O)CN(C)C(=O)CC1OC(=O)c2ccccc21 (centres unmarked),12.1
8,COc1ccc(CCNC(=O)CCS(=O)(=O)c2ccc3nc(C)sc3c2)cc1OC,-5.49
9,O=c1c2oc3ccccc3c2ncn1Cc1ccccc1F,-6.68
10,CCOC(=O)CSc1nc(N)c(C#N)c(CC(C)C)c1C#N,-1.12
11,COc1ccc(OC)c(C2=Nn3c(nnc3C3CCCCC3)SC2)c1,0.609
12,Nc1nnc(SCC(=O)NCCOc2ccccc2)s1,5.15
13,COc1cccc(/C=N/NC(=O)c2ccccc2N(Cc2ccccc2)S(=O)(=O)c2ccccc2)c1OC,0.976
14,O=C(CSC1=Nc2ccccc2C2CC=NN12)Nc1ccc(F)c(F)c1F (centres unmarked),-2.96
15,O=C(Nc1ccc(NC(=O)c2ccc([N+](=O)[O-])cc2[N+](=O)[O-])cc1)c1ccco1,13.5
16,O=C(CSc1nnc(Cc2ccccc2)n1C1CCCCC1)N1CCOCC1,-3.9
17,C/C(=C1/SC(N2CC(C)OC(C)C2)=NC1=O)c1ccccc1 (centres unmarked),2.64
18,CC12CC3CC(C)(C1)CC(NCc1ccncc1)(C3)C2.Cl,-4.25
19,Cc1cc(NC(=O)CSc2nnc(-c3ccco3)n2Cc2ccco2)no1,-6.42
20,O=C(COC(=O)c1ccccc1O)Nc1ncc(Cl)cc1Cl,13.7
21,COc1ccc(/C=N/Nc2cc(C)nc3c(C)cccc23)cc1,-18
22,CCOC(=O)C(NC(=O)CC)(Nc1ccccc1OC)C(F)(F)F (centres unmarked),14.2
